Data: PubChem BioAssay AID1460 (National Center for Advancing Translational Sciences (NCATS), 2008)
Screen size: about 270,000 compounds; about 5,800 (2.1%) were called active. Inconclusive results, whose numbers are uncertain, are shown with a selection of clear calls. The call rests on the fitted dose curve; in most records, active means well fitted inhibition curve with a large enough effect; inconclusive means small, poorly fitted or top-dose-only effect; inactive means flat fitted curve, though single readings scatter. A potency beside an inconclusive call is a rough fit, not a confirmed value.

Target: Microtubule-associated protein tau (Homo sapiens) (UniProt P10636)
Experiment: qHTS for Inhibitors of Tau Fibril Formation, Thioflavin T Binding; further: nearly all actives have a fitted effect of over 55% in size
Conditions: recombinant tau K18 P301L (four-repeat tau fragment), heparin-induced fibrillization, ThT fluorescence; series mostly up to 57.4 µM
How it was run: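 In this qHTS, human K18 P301L tau is incubated with compound and heparin for 6 hr at 37 C, and Thioflavin T fluorescence then reports fibril load.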
On the % scale 0 is the no-effect control and ±100 the full control effect; potency means the concentration at half of the fitted maximal effect; tags describe the fitted curve by direction and shape.

UniProt P10636, sequence (P10636 whole entry, looked up): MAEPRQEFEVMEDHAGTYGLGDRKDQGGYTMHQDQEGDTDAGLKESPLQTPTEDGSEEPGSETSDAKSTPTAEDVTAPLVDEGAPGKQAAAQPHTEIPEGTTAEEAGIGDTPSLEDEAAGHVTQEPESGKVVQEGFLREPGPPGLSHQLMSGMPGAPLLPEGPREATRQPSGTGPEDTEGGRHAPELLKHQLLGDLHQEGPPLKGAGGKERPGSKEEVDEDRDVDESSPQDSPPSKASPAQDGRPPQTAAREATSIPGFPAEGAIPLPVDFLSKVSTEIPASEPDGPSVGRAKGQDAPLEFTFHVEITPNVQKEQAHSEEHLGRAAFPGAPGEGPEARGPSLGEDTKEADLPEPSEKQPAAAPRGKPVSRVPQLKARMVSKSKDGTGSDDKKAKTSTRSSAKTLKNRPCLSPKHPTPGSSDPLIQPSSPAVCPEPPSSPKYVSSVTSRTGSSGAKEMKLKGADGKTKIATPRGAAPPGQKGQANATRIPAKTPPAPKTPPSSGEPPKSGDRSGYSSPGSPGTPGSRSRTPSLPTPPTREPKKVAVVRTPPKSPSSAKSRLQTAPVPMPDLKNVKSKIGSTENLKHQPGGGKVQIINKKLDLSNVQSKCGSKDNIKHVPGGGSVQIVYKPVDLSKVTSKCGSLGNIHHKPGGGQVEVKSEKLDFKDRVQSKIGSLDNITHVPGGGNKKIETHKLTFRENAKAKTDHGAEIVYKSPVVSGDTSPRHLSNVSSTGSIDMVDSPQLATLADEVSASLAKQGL

SMILES | Potency | activity, negative = inhibition
COc1ccccc1NC(=O)c1c(NCc2ccc(C)o2)sc2c1CCCCC2 | active: 25.1 µM | –
CCN(CC)c1ccc(C(=O)NC(=S)N2CCN(Cc3ccc4c(c3)OCO4)CC2)cc1 | inconclusive: 10 µM [inhibitor, partial curve] | –
CCOc1ccc(C(=O)Nc2ccc(-c3cc4ccccc4oc3=O)c(C)c2)cc1[N+](=O)[O-] | inconclusive: 2.82 µM [inhibitor, full curve] | –
CC(=O)N(CC(=O)O)c1ccccc1 | inactive | –
CC1=C(C(=O)Nc2ccc(C)cc2C)C(c2cccs2)n2nc(SCc3cccc(C)c3)nc2N1 (centres undefined) | inactive | –
COc1ccc(-n2cc(C(=O)NCCc3cc(OC)ccc3OC)c3ccccc3c2=O)cc1 | inconclusive: 17.8 µM [inhibitor, partial curve] | –
COc1ccc2c(c1)c(=O)c(S(=O)(=O)c1ccccc1)cn2CC(=O)Nc1ccc(C)c(Cl)c1 | inactive | –
S=C(NCCCc1cnc[nH]1)NCCCN(Cc1ccc(Cl)c(Cl)c1)c1ccc(Br)cn1 | inconclusive: 39.8 µM [inhibitor, single point] | –
COc1cccc(-n2c(SCC(N)=O)nc3c([nH]c4ccccc43)c2=O)c1 | inactive | –
Cc1cccc2c1N(Cc1ccccc1OCCC(C)C)C(=O)C2=O | active: 25.1 µM | –
COc1ccc(-c2nc3c(c4c2C[C@H](c2ccccc2)OC4)CN(S(=O)(=O)c2ccc(C)cc2)CC3)c(C)c1 | – | inactive: 8.42% [at 11.5 µM]
Brc1ccc(-c2cnnc(N3CCCC3)n2)cc1 | inconclusive: 17.8 µM [inhibitor, partial curve] | –
CC(C)OCCCNC(=O)c1ccc(C2SCC(=O)N2Cc2ccco2)cc1 (centres undefined) | inconclusive: 14.1 µM [inhibitor, partial curve] | –
Cc1c(C(=O)c2ccccc2)oc2ccc3ccccc3c12 | inactive | –
COc1ccc(CNC(=O)Cn2ccc3cc(S(=O)(=O)N4CCCCC4)ccc32)cc1OC | inactive | –
CCOC(=O)N1CCC(NC(=O)c2ccc3c(c2)sc2nc(-c4ccc(OC)cc4)cn23)CC1 | inconclusive: 0.447 µM [inhibitor, full curve] | –
CCn1c2c(c3cc(Cl)ccc31)CCCC2=O | inconclusive: 31.6 µM [inhibitor, partial curve] | –
Cc1[nH]c2ccccc2c1/C=N/Nc1ccc([N+](=O)[O-])cc1S(=O)(=O)Nc1ccc(Cl)cc1 | active: 3.16 µM | –
Cc1nc2nc(NC(=O)c3ccc(C(C)(C)C)cc3)[nH]n2c(=O)c1Cc1ccccc1 | inconclusive: 25.1 µM [inhibitor, single point] | –
